The source of these data is the supplement of paper PMC11125491.

± gives the standard deviation of the averaged measurements. Growth of baker's yeast expressing single-residue variants of Pneumocystis jirovecii dihydrofolate reductase in 8.8 or 44 µM methotrexate (about 75% and 90% inhibition of the wild type). Selection coefficient per generation; 0 = like wild type, above 0 = less sensitive, below 0 = more sensitive or loss of function. No active / inactive call per row; the paper calls resistant above 0.220 (8.8 µM) or 0.243 (44 µM) together with a significance test. At 44 µM about 15% of codons end with one read or none, so the lowest values are floors (replicate rank correlation 0.74; 0.94 at 8.8 µM).

B1: UniProt A0EPZ9; numbered along this chain (parent)
chain: MDWQKSLTLIVALTLSRGIGLKNDLPWKLKSDMMFFSRVTSGLLVTRSTGQMNVVLMGRKTWESLPAHSRPLKNRINVVISRQEVLDLGGGAYHARSLDDALALLSQIYDSTSKIQLNRVFVIGGGELCKAAMEHSRLNRIIATVIHNEVDCDVFFPIDFRSSQSCLPWRKQDHSVLEAWVGSKVPQGKINENGFIYEFEMWIRDI

The variants in this data set derive from B1. The data set is described as follows: selection coefficient against synonymous wild-type codons (log2 per generation); higher = faster growth than wild type. Conditions: with Saccharomyces cerevisiae carrying the variant on a plasmid. How it is done:
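Pooled growth of yeast carrying single-residue variants of P. jirovecii dihydrofolate reductase (own DFR1 gene intact), two passages at 30 °C, three cultures, sequenced before and after. Codons with under 15 starting reads are left out; codons of one change are averaged.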

For MDWQKSLTLIVALTLSRGIGLKNDLPWKLKSDMMFFSRVTSGLLVTRSTGQMNVVLMGLKTWESLPAHSRPLKNRINVVISRQEVLDLGGGAYHARSLDDALALLSQIYDSTSKIQLNRVFVIGGGELCKAAMEHSRLNRIIATVIHNEVDCDVFFPIDFRSSQSCLPWRKQDHSVLEAWVGSKVPQGKINENGFIYEFEMWIRDI [R59L], the “selection coefficient against synonymous wild-type codons (log2)” value (from here on “selection coefficient … (log2)”) (methotrexate 8.8 µM) is 0.348 ± 0.027 and the “selection coefficient … (log2)” value (methotrexate 44 µM) came out at 0.377 ± 0.043.

For MDWQKSLTLIVALTLSRGIGLKNDLPWKLKSDMMFFSRVTHGLLVTRSTGQMNVVLMGRKTWESLPAHSRPLKNRINVVISRQEVLDLGGGAYHARSLDDALALLSQIYDSTSKIQLNRVFVIGGGELCKAAMEHSRLNRIIATVIHNEVDCDVFFPIDFRSSQSCLPWRKQDHSVLEAWVGSKVPQGKINENGFIYEFEMWIRDI [S41H], the “selection coefficient … (log2)” value was -0.018 ± 0.024 (methotrexate 8.8 µM) and -0.084 ± 0.085 (methotrexate 44 µM).

With MDWQKSLTLIVALTLSRGIGLKNDLPWKLKSDMMFFSRVTSGLLVTRSTGQMNVVLMGRKTWESLPAHSRPLKNRINVVISRQEVLDLGGGAYHARSLDDALALLSQIYDSTSKIQLNRVCVIGGGELCKAAMEHSRLNRIIATVIHNEVDCDVFFPIDFRSSQSCLPWRKQDHSVLEAWVGSKVPQGKINENGFIYEFEMWIRDI [F121C], the “selection coefficient … (log2)” value (methotrexate 8.8 µM) is -0.0278 ± 0.038 and the “selection coefficient … (log2)” value (methotrexate 44 µM) is -0.0722 ± 0.071.

On to MDWQKSLTLIVALTLSRGIGLKNDLPWKLKSDMMKFSRVTSGLLVTRSTGQMNVVLMGRKTWESLPAHSRPLKNRINVVISRQEVLDLGGGAYHARSLDDALALLSQIYDSTSKIQLNRVFVIGGGELCKAAMEHSRLNRIIATVIHNEVDCDVFFPIDFRSSQSCLPWRKQDHSVLEAWVGSKVPQGKINENGFIYEFEMWIRDI [F35K], for which the “selection coefficient … (log2)” value by setting is: (methotrexate 8.8 µM) -0.298 ± 0.058; (methotrexate 44 µM) 0.0879 ± 0.028.

As for MDWQKSLTLIVALTLSRGIGLKNDLPWKLKSDMMRFSRVTSGLLVTRSTGQMNVVLMGRKTWESLPAHSRPLKNRINVVISRQEVLDLGGGAYHARSLDDALALLSQIYDSTSKIQLNRVFVIGGGELCKAAMEHSRLNRIIATVIHNEVDCDVFFPIDFRSSQSCLPWRKQDHSVLEAWVGSKVPQGKINENGFIYEFEMWIRDI [F35R], the “selection coefficient … (log2)” value (methotrexate 8.8 µM) was -0.112 ± 0.061 and the “selection coefficient … (log2)” value (methotrexate 44 µM) was 0.259 ± 0.039.

On to MDWQKSLTLIVALTLSRGIGLKNDLPWKLKSDMMFFSRVTSGLLVTRSTGQMNVVLMGRKTWESLPALSRPLKNRINVVISRQEVLDLGGGAYHARSLDDALALLSQIYDSTSKIQLNRVFVIGGGELCKAAMEHSRLNRIIATVIHNEVDCDVFFPIDFRSSQSCLPWRKQDHSVLEAWVGSKVPQGKINENGFIYEFEMWIRDI [H68L], for which the “selection coefficient … (log2)” value is -0.221 ± 0.082 (methotrexate 8.8 µM) and -0.161 ± 0.11 (methotrexate 44 µM).

For MDWQKSLTLIVALTLSRGIGLKNDLPWKLKSDMMFFSRVTSGLLVTRSTGQMNVVLMGRKTWESLPAHSRPLKNRINVVISRQEVLDLGGGAYHARSLDDALALLSQIYDSTSKIQLNRVFVIGGGELCKAAMEHSRLNRIIATVIHNEVDCDVFFPIDFRSSQSILPWRKQDHSVLEAWVGSKVPQGKINENGFIYEFEMWIRDI [C166I], the “selection coefficient … (log2)” value by setting is: (methotrexate 8.8 µM) -0.028 ± 0.015; (methotrexate 44 µM) -0.127 ± 0.15.

MDWQKSLTLIVALTLSRGIGLKNDLPWKLKSDMMFFSRVTSGLLVTRSTGQMNVVLMGRKTWESLPAHSRPLKNRINVVISRQEVLDLGGGAYHARSLDDALALLSQIYDSTSKIQLNRVFVIGGGELCKAAMEHSRLNRIIATVIHNEVDCDVFFPIDFRSSQSCLPWKKQDHSVLEAWVGSKVPQGKINENGFIYEFEMWIRDI [R170K]: the “selection coefficient … (log2)” value was found to be 0.0894 ± 0.013 (methotrexate 8.8 µM) and 0.0127 ± 0.074 (methotrexate 44 µM).
